Experimental data reported in PubChem BioAssay AID504832 (National Center for Advancing Translational Sciences (NCATS), 2011).
The campaign covered roughly 310,000 compounds. About 18,000 (5.8%) were called active. The shares of active, inactive and inconclusive entries below differ from those in the screen. Calls follow the shape of the dose curve; as a rule, active = well fitted inhibition curve with a large enough effect; inconclusive = small, poorly fitted or top-dose-only effect, or another doubt; inactive = no such curve, though single readings can be large or run the other way. No potency is given beside an inconclusive call; the fits are too rough.

experiment: Primary qHTS for delayed death inhibitors of the malarial parasite plastid, 48 hour incubation; settings: P. falciparum luciferase growth in erythrocytes; series mostly up to 28.7 µM; activity change, negative = inhibition: at the top concentration
Method in brief: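 Growth was read as firefly luciferase luminescence after a 48 h, 37 C, 5% CO2 exposure of compounds to reporter-bearing P. falciparum cultures (0.1% parasitemia, 2% hematocrit final) in Albumax-supplemented RPMI 1640.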
% is scaled to controls: 0 for no effect and ±100 for the full control effect; potency is read from the fitted curve at half-maximal effect; tags tell the direction and shape of the fitted curve.

Row | SMILES | Potency | activity change, negative = inhibition
1 | COc1cccc(N2CCN(CC(=O)Nc3ccccc3C(=O)NCCc3ccccc3)CC2)c1 | inconclusive [inhibitor, single point] | –
2 | COc1ccc(C(CC(=O)O)NC(=O)c2ccco2)cc1 (centres undefined) | – | inactive: 6.76%
3 | CCNC(=O)c1cccc(NC(=O)C2CC(=O)N(CCc3ccccc3)C2)c1 (centres undefined) | – | inactive: 18.1%
4 | CC(C)Cc1ccc(CN2CCCC(NC(=O)Cn3cnnn3)C2)cc1 (centres undefined) | – | inactive: -7.32%
5 | Cc1ccc(C)c(N(C(=O)CNC(=O)c2ccco2)C(C(=O)NC2CCCCC2)c2ccncc2)c1 (centres undefined) | – | inactive: -20.1%
6 | O=C(NCc1ccc(Cl)cc1)Nc1ccc(F)cc1 | – | inactive: 22.6%
7 | COc1cc(C(=O)NC2CCCc3ccccc32)ccc1OCC(=O)Nc1ccc(F)cc1 (centres undefined) | inconclusive [inhibitor, single point] | –
8 | CC(=O)N1CCOc2ccc(S(=O)(=O)N3CCC(C(=O)NCc4ccccc4)CC3)cc21 | inconclusive [inhibitor, single point] | –
9 | Cc1ccc(C(=O)O/N=C/c2ccc(N(C)C)cc2)cc1 | – | inactive: 119%
10 | CC(C)(CNC(=O)c1ccc(S(=O)(=O)Nc2cccc(C(F)(F)F)c2)cc1)N1CCOCC1 | inconclusive [inhibitor, single point] | –
11 | O=S(=O)(NC1CC1)c1ccc(S(=O)(=O)N2CCc3ccccc32)cc1 | – | inactive: -16.6%
12 | COc1ccc(-c2cc3onc(-c4c(Cl)cccc4Cl)c3c(=O)n2C)cc1 | inconclusive [inhibitor, single point] | –
13 | C/C(CC(=O)Nc1cccc(Cl)c1Cl)=N\NC(=O)c1ccccc1Br | – | inactive: 3.23%
14 | COc1ccc(CN2CCC(CO)(Cc3cccc(C(F)(F)F)c3)CC2)cc1Cn1cccn1 | inconclusive [inhibitor, partial curve, poor fit] | –
15 | CCCCN(CCCC)CCNC(=O)c1ccc2nc(-c3ccccc3NC(C)=O)c(=O)[nH]c2c1 | active: 2.33 µM | –
16 | S=C=Nc1ccccn1 | inconclusive [inhibitor, partial curve, poor fit] | –
17 | COc1cccc(-c2c(C(=O)N/N=C/c3cccnc3)nnn2-c2nonc2N)c1 | inconclusive [inhibitor, single point] | –
18 | CCCCN(C(=O)Cc1ccc2c(c1)OCCO2)c1c(N)n(CC(C)C)c(=O)[nH]c1=O | inconclusive [inhibitor, partial curve] | –
19 | O=C(NCCN1CCOCC1)c1cccn2c(=O)c3c4c(sc3nc12)CCCC4 | – | inactive: -14.2%
20 | COc1ccc(S(=O)(=O)N(Cc2ccco2)Cc2cc3ccccc3[nH]c2=O)cc1 | – | inactive: 2.22%
21 | Cc1nnc(NC(=O)c2ccccc2-c2ccccc2C(=O)O)s1 | – | inactive: 5.1%
22 | O=C(CN1C(=O)CCSc2ccccc21)Nc1ccc2c(c1)OCO2 | inconclusive [inhibitor, full curve, poor fit] | –

Row | SMILES | Potency | activity change, negative = inhibition
23 | Cc1ccc(C(=O)NNC(=O)c2ccncc2)cc1S(=O)(=O)N1CCOCC1 | inconclusive [inhibitor, partial curve, poor fit] | –
24 | Cc1cccc(NC(=O)c2nc[nH]c2C(=O)N(C)Cc2ccccc2)c1 | – | inactive: 13.1%
25 | CCOC(=O)C(C(=O)N(C)C)c1ncc(C(F)(F)F)cc1Cl (centres undefined) | inconclusive [inhibitor, single point] | –
26 | CCSc1nnc(NC(=O)CSc2nc3c(c(=O)n2CC)SC(C)C3)s1 (centres undefined) | inconclusive [inhibitor, partial curve] | –
27 | Cc1cc2nc(-c3ccc(SCC(=O)N4CCN(C(=O)c5ccco5)CC4)nc3)[nH]c2cc1C | inconclusive [inhibitor, full curve, poor fit] | –
28 | O=S(=O)(c1cccs1)N1CCN(c2ccc(O)cc2)CC1 | inconclusive [inhibitor, single point] | –
29 | O=C(c1cn(Cc2ccccc2)nc1-c1cccnc1)N1CCN(Cc2ccccc2)CC1 | inconclusive [inhibitor, single point] | –
30 | Cc1ccc(CNC(=O)C(=O)NCC2CCCN2S(=O)(=O)c2cccs2)cc1 (centres undefined) | inconclusive [inhibitor, full curve, poor fit] | –
31 | COc1ccc(C2CC(c3cccs3)=NN2c2ccc(C=O)cc2)cc1 (centres undefined) | – | inactive: 0.225%
32 | c1ccc(-c2ccccc2-n2cnnn2)cc1 | – | inactive: -1.6%
33 | N#CC1=C(N)C2=CCCC[C@H]2[C@H](c2cccc(F)c2)C1(C#N)C#N | inconclusive [inhibitor, partial curve] | –
34 | O=C(COc1ccccc1N1C(=O)c2ccccc2C1=O)c1ccc(Cl)cc1 | inconclusive [inhibitor, single point] | –
35 | CCOC(=O)CC(c1ccc([N+](=O)[O-])cc1)n1c(C)ccc1C (centres undefined) | inconclusive [inhibitor, partial curve] | –
36 | CC(C)C(c1nnnn1Cc1ccc(F)cc1)N1CCN(Cc2ccc3c(c2)OCO3)CC1 (centres undefined) | inconclusive [inhibitor, single point] | –
37 | COC(=O)C1=C(C)OC(N)=C(C#N)C1c1ccco1 (centres undefined) | – | inactive: -16.1%
38 | CCN1CCN(c2ccc(S(=O)(=O)N3CCOCC3)cc2NC(=O)/C=C/c2cccc(OC)c2OC)CC1 | inconclusive [inhibitor, partial curve] | –
39 | CCN(CC)S(=O)(=O)c1ccc(-c2nnc(SCC(=O)N3CCOCC3)o2)cc1 | inconclusive [inhibitor, single point] | –
40 | COc1cccc(NC(=S)N2CCCC2c2ccc(OC)c(OC)c2)c1 (centres undefined) | inconclusive [inhibitor, single point] | –
41 | CCOc1cc(-c2nnc(-c3ccco3)o2)cc(OCC)c1OCC | inconclusive [inhibitor, single point] | –
42 | O=C(Nc1ccnn1C1CCN(CC2CC=CCC2)CC1)c1ccccc1Cl (centres undefined) | inconclusive [inhibitor, partial curve, poor fit] | –
43 | COc1cc(/C=C/[N+](=O)[O-])ccc1OC(=O)c1cccnc1 | inconclusive [inhibitor, partial curve, poor fit] | –
44 | O=C(Nc1cc(C(F)(F)F)ccc1N1CCCC1)c1cccnc1 | inconclusive [inhibitor, partial curve] | –
